Measurements as given in publication PMC11535055, “ER-phagy restrains inflammatory responses through its receptor UBAC2” (The EMBO Journal, 2024).
Changes are numbered by the printed parent chain. Names may count otherwise. Read-outs that look alike come from different tables or passages of the source. No constants are given. Whether binding was seen depends on the method and setting. In cells and extracts the contact can be indirect. Some entries that bind do so weakly or less than the wild type. For some assays here: Tags and fused reporters may be left off the sequences shown.

Amino acid sequences for entries named in this document (tags omitted). Residues count along the entry.
UniProt Q9BXW4, residues 1-126: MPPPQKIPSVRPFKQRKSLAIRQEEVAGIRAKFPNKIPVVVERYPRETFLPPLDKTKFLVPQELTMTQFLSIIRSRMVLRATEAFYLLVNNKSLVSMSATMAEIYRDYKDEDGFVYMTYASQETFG
UniProt O95166: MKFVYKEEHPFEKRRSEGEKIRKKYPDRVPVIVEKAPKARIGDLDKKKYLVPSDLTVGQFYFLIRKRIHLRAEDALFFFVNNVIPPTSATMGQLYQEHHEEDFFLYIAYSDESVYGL
UniProt P60520: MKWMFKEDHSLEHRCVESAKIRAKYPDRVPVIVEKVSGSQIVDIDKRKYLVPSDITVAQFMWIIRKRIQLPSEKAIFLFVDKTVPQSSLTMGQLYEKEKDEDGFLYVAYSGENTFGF
UniProt Q676U5: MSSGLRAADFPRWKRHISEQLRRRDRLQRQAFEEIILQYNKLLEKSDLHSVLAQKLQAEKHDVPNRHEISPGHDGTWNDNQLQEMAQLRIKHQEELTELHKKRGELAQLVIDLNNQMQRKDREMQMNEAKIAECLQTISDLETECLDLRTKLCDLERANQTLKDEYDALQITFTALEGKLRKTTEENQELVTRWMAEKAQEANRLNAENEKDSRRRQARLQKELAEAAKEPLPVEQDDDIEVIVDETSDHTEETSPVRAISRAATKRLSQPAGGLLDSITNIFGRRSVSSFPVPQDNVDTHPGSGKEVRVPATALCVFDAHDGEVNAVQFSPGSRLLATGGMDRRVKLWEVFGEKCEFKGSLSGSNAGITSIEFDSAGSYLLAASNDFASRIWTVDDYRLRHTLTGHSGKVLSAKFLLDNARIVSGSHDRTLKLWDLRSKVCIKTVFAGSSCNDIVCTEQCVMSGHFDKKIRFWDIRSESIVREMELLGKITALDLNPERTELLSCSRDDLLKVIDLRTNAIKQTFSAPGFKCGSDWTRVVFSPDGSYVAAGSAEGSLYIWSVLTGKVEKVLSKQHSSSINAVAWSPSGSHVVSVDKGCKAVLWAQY
UniProt Q9H6L5: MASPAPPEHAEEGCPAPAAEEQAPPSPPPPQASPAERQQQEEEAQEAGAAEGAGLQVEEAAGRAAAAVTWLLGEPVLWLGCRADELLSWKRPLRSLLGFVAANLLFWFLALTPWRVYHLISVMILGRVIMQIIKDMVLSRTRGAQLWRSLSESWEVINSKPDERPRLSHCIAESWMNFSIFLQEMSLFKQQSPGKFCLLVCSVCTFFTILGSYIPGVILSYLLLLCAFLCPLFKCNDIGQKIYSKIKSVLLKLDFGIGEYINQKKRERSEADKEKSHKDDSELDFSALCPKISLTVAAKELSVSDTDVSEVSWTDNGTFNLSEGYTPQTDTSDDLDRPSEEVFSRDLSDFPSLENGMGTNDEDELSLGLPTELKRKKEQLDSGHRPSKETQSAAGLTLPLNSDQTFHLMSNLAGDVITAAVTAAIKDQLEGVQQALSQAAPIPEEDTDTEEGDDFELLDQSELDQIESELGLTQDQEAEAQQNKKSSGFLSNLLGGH
UniProt Q7KZI7: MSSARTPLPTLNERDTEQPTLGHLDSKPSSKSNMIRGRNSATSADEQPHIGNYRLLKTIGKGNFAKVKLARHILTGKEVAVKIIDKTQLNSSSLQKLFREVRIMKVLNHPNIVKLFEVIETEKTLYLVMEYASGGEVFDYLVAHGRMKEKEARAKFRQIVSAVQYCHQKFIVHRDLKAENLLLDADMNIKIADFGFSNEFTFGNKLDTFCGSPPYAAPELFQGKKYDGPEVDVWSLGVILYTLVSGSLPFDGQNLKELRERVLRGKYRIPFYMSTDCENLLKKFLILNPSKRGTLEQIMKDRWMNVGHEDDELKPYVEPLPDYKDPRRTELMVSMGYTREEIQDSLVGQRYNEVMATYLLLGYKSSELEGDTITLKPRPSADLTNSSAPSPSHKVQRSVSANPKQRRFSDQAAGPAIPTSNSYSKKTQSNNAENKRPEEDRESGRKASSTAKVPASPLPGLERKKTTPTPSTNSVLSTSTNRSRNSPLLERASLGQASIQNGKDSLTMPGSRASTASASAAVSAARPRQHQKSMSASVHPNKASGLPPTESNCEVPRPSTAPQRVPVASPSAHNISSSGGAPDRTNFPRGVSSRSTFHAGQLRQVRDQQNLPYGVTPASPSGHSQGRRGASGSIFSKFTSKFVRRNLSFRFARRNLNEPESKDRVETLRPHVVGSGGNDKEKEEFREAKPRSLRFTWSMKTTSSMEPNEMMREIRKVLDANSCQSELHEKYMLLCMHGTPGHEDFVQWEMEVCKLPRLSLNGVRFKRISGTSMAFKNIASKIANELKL

Experiments:
[1] = biological target: HA-UBAC2 (ubiquitin-associated domain-containing protein 2), wild type (human) (UniProt Q8NBM4); experiment: co-IP; Flag-UBAC2 and HA-UBAC2 co-expressed in 293T cells; IP with anti-Flag, immunoblot with anti-HA; with TG or EBSS treatment
[2] = biological target: Flag-LC3C (UniProt Q9BXW4); experiment: co-IP; HA-UBAC2 (WT or mutant) and Flag-tagged ATG8 family member co-expressed in HEK293T/293T cells; IP with anti-Flag (M2) beads, immunoblot with anti-HA; untreated or with TG (1 uM), EBSS, Baf A1 (0.2 uM) or MARK2 siRNA; beads washed 5 times with low-salt lysis buffer (50 mM HEPES, 150 mM NaCl, 1% Triton X-100)
[3] = biological target: Flag-GABARAP, wild type (UniProt O95166); experiment: as above
[4] = biological target: Flag-GABARAPL2 (UniProt P60520); experiment: as above
[5] = biological target: Flag-LC3A (UniProt Q9H492); experiment: as above
[6] = biological target: T1, UBAC2 (co-IP of Appendix Fig. S1H) (human) (UniProt Q8NBM4); experiment: co-IP; co-IP and immunoblot with and without starvation-induced autophagy (Appendix Fig. S1H); cells and antibodies not told in the text shown
T1 sequence: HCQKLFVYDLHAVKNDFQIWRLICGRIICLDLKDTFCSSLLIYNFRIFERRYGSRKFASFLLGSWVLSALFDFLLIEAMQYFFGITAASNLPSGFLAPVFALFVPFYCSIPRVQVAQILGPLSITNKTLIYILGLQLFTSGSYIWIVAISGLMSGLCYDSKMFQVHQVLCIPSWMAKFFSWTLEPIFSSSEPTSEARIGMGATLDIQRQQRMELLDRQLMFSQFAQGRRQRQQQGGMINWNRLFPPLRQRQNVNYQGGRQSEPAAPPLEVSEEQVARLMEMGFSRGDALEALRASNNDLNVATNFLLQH

[7] = biological target: T2, UBAC2, endogenous (human (endogenous in HeLa, THP-1, HT-29)) (UniProt Q8NBM4); experiment: co-IP; extracts of HeLa cells incubated with or without EBSS for 3 h in the presence of Baf A1 (0.2 uM); IP with anti-UBAC2, immunoblot with indicated antibodies; endogenous proteins
T2 sequence: T1 sequence

[8] = biological target: T2, UBAC2, endogenous (human (endogenous in HeLa, THP-1, HT-29)); experiment: co-IP; lysates of HeLa cells, THP-1 macrophages or HT-29 cells treated with TG (1 uM) or EBSS in the presence of Baf A1 (0.2 uM); immunoprecipitation and immunoblot of endogenous proteins; precipitating antibody not told
[9] = biological target: Flag-GABARAP, wild type (UniProt O95166); experiment: co-IP; HA-UBAC2 (WT or mutant) and Flag-tagged ATG8 family member co-expressed in HEK293T/293T cells; IP with anti-Flag (M2) beads, immunoblot with anti-HA; untreated or with TG (1 uM), EBSS, Baf A1 (0.2 uM) or MARK2 siRNA; beads washed 5 times with low-salt lysis buffer (50 mM HEPES, 150 mM NaCl, 1% Triton X-100); remark: listed apart in the source
[10] = biological target: GABARAP, endogenous (human (endogenous in HeLa)) (UniProt O95166); experiment: co-IP; extracts of HeLa cells incubated with TG (1 uM) or EBSS for various times; IP with anti-GABARAP, immunoblot for UBAC2; endogenous proteins
[11] = biological target: T2, UBAC2, endogenous (human (endogenous in HeLa, THP-1, HT-29)); experiment: cross-linking; lysates of MARK2 KO THP-1 macrophages or MARK2 KO HT-29 cells treated with TG (1 uM, 1 h) or EBSS (3 h) with Baf A1 (0.2 uM); 2 mM DSS, immunoblot for endogenous UBAC2

HA-UBAC2 (ubiquitin-associated domain-containing protein 2), wild type (from UniProt Q8NBM4 36-344)
binding [1]: binds | binding [2]: binds | binding [3]: binds | binding [4]: binds | binding [5]: binds

ATG16L1 (from UniProt Q676U5 1-607)
binding [6]: binds

FAM134B, endogenous (from UniProt Q9H6L5 1-497)
binding [7]: binds weakly

microtubule affinity-regulating kinase 2 (MARK2), endogenous (from UniProt Q7KZI7 1-788) (enzyme)
binding [8]: binds

B1: WIPI2 (protein, UniProt Q9Y4P8 1-454)
chain: MNLASQSGEAGAGQLLFANFNQDNTEVKGASRAAGLGRRAVVWSLAVGSKSGYKFFSLSSVDKLEQIYECTDTEDVCIVERLFSSSLVAIVSLKAPRKLKVCHFKKGTEICNYSYSNTILAVKLNRQRLIVCLEESLYIHNIRDMKVLHTIRETPPNPAGLCALSINNDNCYLAYPGSATIGEVQVFDTINLRAANMIPAHDSPLAALAFDASGTKLATASEKGTVIRVFSIPEGQKLFEFRRGVKRCVSICSLAFSMDGMFLSASSNTETVHIFKLETVKEKPPEEPTTWTGYFGKVLMASTSYLPSQVTEMFNQGRAFATVRLPFCGHKNICSLATIQKIPRLLVGAADGYLYMYNLDPQEGGECALMKQHRLDGSLETTNEILDSASHDCPLVTQTYGAAAGKGTYVPSSPTRLAYTDDLGAVGGACLEDEASALRLDEDSEHPPMILRTD
binding [6]: binds

B2: HA-UBAC2 S223A (protein, UniProt Q8NBM4 36-344)
chain: T1 sequence with S188A
binding [9]: binds

B3: UBAC2 S223D, transfected (cross-linking experiments) (natural protein, human, UniProt Q8NBM4 36-344, looked up)
chain: T1 sequence with S188D
notes: UBAC2, human; also called S223D mutant form of UBAC2
binding [9]: binds

B4: UBAC2, endogenous (natural protein, human (endogenous in HeLa, THP-1, HT-29), UniProt Q8NBM4 36-344, looked up)
chain: T1 sequence
notes: UBAC2 endogenous in human cell lines; also called ubiquitin-associated domain-containing protein 2; source: endogenous, lysates of HeLa cells, THP-1-derived macrophages and HT-29 cells
binding [10]: binds | binding [11]: no binding (condition: in MARK2 KO cells)

B5: HA-UBAC2 LIR mutant (LIRm; W275A and L278A) (protein, UniProt Q8NBM4 36-344)
chain: T1 sequence with W240A, L243A
binding [9]: no binding
